This is an account of results in the RNAGym collection of RNA variant scans (doi:10.7554/elife.90254).

B1: LINE1-mini (parent)
chain: GGCAGAGCUCAACACAGCGUGGCAAAGUGGCUGUGGCUAGACUGCC

The source gives no read counts; variants with many changes may rest on few reads.

Variants of B1 are the subject of the data set. Put plainly: self-cleavage, relative activity (ratio to wild type); higher = more cleavage; in vitro, sequencing; the parent is a self-cleaving ribozyme.
For the variant GGCAGUGCUAAAGACAGCGUGGCAAAAUGGCCGUGGCUAGACUGCC [A6U C10A C13G G27A U32C], the self-cleavage stood at 0.02.

Regarding GGCAGUGAUCAACACAGCGUGGCAUUGUGGCUUUGCCUAGACGGCC [A6U C8A A25U A26U G33U G36C U43G], the self-cleavage worked out at 0.

With GGCAGUGUUCAACACAGCGUGGCAAAGUGGCUCUGGAUAGACUGCC [A6U C8U G33C C37A], the self-cleavage came to 0.05.

Consider GGCAGUGAUCAACGCAGCGUGGCAAAGUGGCUGUGGCUAGACUGCC [A6U C8A A14G], for which the self-cleavage amounted to 0.21.

With GGCAGUGAUUAACACAGCGUGGCAAAGUCGCUGUGGCUAGACUGCC [A6U C8A C10U G29C], the self-cleavage worked out at 0.03.

GGCAGUGCUCAACGCAGCGUGGCAAAGUGGCGGUGGCUACACUGCC [A6U A14G U32G G40C]: the self-cleavage was determined as 0.17.

With GGCAGUGCUAAACACAGAGUGGCAAAGUGGCUGUGGCUACACUACC [A6U C10A C18A G40C G44A], the self-cleavage was 0.02.

Take GGCAGUGGUCAACACAACGUGGCAAAGUGGCUGUUGCUAGACUGCC [A6U C8G G17A G35U]: the self-cleavage was determined as 0.02.

With GGCAGUGCUCAACACUGCUUGGCAAAGUGGCUGUGGCUAGACUGCC [A6U A16U G19U], the self-cleavage was 0.09.

On to GGCAGUGUUCAACCCAGCGUUGCAAAGUGGCUGUGGCUAGACUGCC [A6U C8U A14C G21U], for which the self-cleavage was found to be 0.04.

Take GGCAGUGAUAUACACAGCGUGGCAAAGUGGCCGUGGCUAGACUACC [A6U C8A C10A A11U U32C G44A]: the self-cleavage was 0.01.

GGCAGUGCUGAACACAGCUUGGCAGGGUGGCUGUGGCUAGACUGCC [A6U C10G G19U A25G A26G]: the self-cleavage was found to be 0.02.

Regarding GGCAGUGUUCAACACAGCGUGGCAAAGUGGCAGUGGCUAGACUGCC [A6U C8U U32A], the self-cleavage came out at 0.04.

On to GGCAGUGCUCAACCCAGCGUGGCAAAGUGGCUGUGGCUCGACUGCC [A6U A14C A39C], for which the self-cleavage stood at 0.06.

With GGCAGUGCUAAAUACAGCGUGGAAAAGUGGCUGUGGCUAGACUGUC [A6U C10A C13U C23A C45U], the self-cleavage came to 0.

As for GGCAGUGCUAAACACAGCGUGGAAAAGUGUCUGUGGCUAGACUGCC [A6U C10A C23A G30U], the self-cleavage came out at 0.02.

On to GGCAGUGAUCAACACAGCCUGGCAAAGUGGCUGUGGCUAGACGGCC [A6U C8A G19C U43G], for which the self-cleavage is 0.03.

For the variant GGCAGUGCUUAACUCAGCGUGGCAAAGUGGCUGUGGCUAGACUGCC [A6U C10U A14U], the self-cleavage turned out to be 0.04.

In the case of GGCAGUGUUCAACACACCGUGGCAAGGUGGCUGUGGCGAGACUGCC [A6U C8U G17C A26G U38G], the self-cleavage was found to be 0.01.

Consider GGCAGUGCUAACCACAUCGUGGCAAAGUGGCCGUGACUAGACUGGC [A6U C10A A12C G17U U32C G36A C45G], for which the self-cleavage was determined as 0.01.

On to GGCAGUGCUCAACACAGCGUGGCGAAGUGGCUGUGGCUAGACUGCA [A6U A24G C46A], for which the self-cleavage is 0.9.

With GGCAGUGCUCAACACAGCGUGGCAGAGUGGCUGUGGCUAGACUACC [A6U A25G G44A], the self-cleavage came out at 0.09.

For GGCAGUGCUCAACACCGCGUGGCAAAGUGGCUUUGGCUAAACUGCA [A6U A16C G33U G40A C46A], the self-cleavage was 0.

For GGCAGUGCUCAACACAGCGUGGCAACAUGGCUGUGGCUAGACUGCC [A6U A26C G27A], the self-cleavage worked out at 0.04.

As to GGCAGUGCUCAACACAGCGUGGCUAAGUGGCUGUGGAUAGACUGCC [A6U A24U C37A], the self-cleavage stood at 0.06.

Consider GGCAGUGCUCAUCACAGCGUUGCAAAGUGGCUGUGGCUAGAGUGCC [A6U A12U G21U C42G], for which the self-cleavage was determined as 0.14.

Regarding GGCAGUGGUCAACACAGCGUGGCAAAGUGGCUGUGGCUAUUCUGCC [A6U C8G G40U A41U], the self-cleavage turned out to be 0.01.

With GGCAGUGCUCAACACUGCGUGGAAAAGUGGCUGUGGCUAGACUGCC [A6U A16U C23A], the self-cleavage is 0.13.

In the case of GGCAGUGUACAACACAGCGUGGCAAAGUGGCUGUGGCUAGACCGCC [A6U C8U U9A U43C], the self-cleavage is 0.02.

With GGCAGUGCUCAACACAGCGUGGCUAAGUGGCUGUGGCUAGACUGCG [A6U A24U C46G], the self-cleavage stood at 0.14.

With GGCAGUGCUCAACACAGCGUGGCAAAGUGGCUGUGGCUGGGCUGCC [A6U A39G A41G], the self-cleavage came out at 0.05.

Turning to GGCAGUGCUCAACACCGCGUGGCAAAGUGACUAUGGCUAGACCGCC [A6U A16C G30A G33A U43C], the self-cleavage worked out at 0.09.

In the case of GGCAGUGCUCAACACCAGGUGGCAAAGUGGCUGUGGCUAGACUGCC [A6U A16C G17A C18G], the self-cleavage was found to be 0.

As for GGCAGUGCUCAACUCAGCGUGGCAAAGUGUCUGUGGCUAUACUGCC [A6U A14U G30U G40U], the self-cleavage was 0.1.

In the case of GGCAGUGUUUAACACAGCGUGGCAAAGUGACUGUGUCUAGACUGCC [A6U C8U C10U G30A G36U], the self-cleavage came to 0.05.

On to GGCAGUGAUCAACUCAGCGUUGCAAAGUGGCGGUGGCUAGACUGCC [A6U C8A A14U G21U U32G], for which the self-cleavage was determined as 0.09.

In the case of GGCAGUGAUCAACACAGCGUGGCAAAGUGGCUGUGGCUACAUUGCC [A6U C8A G40C C42U], the self-cleavage was 0.06.

Turning to GGCAGUGCUAAACACAGCGUGGCAAAAUGGCUGUGACUAGACUGCC [A6U C10A G27A G36A], the self-cleavage is 0.01.

As for GGCAGUGCUCAUCACAGCGUUGCAAGGUGGCUGUGGCUAGACUGCC [A6U A12U G21U A26G], the self-cleavage was found to be 0.09.

Consider GGCAGUGCUCAACACAGCGUGGCCAAGUGGCUGUGGCUAGAGUACC [A6U A24C C42G G44A], for which the self-cleavage came to 0.01.

For the variant GGCAGUGUUCAACACAGCGUGGCAAAGUGGCUGUGCCUAGACUGGG [A6U C8U G36C C45G C46G], the self-cleavage came to 0.14.

For the variant GGCAGUGCUAAACACAGCGUGCCAAAGUGGCUGUGGCUAGAAUGCC [A6U C10A G22C C42A], the self-cleavage came to 0.03.

In the case of GGCAGUGUUAAAAACAGCUUGGCAAAGUGGCUGUGGCUAGACUGCC [A6U C8U C10A C13A G19U], the self-cleavage turned out to be 0.01.

On to GGCAGUGCUAAACACAGCGUGGCCAAGUAGCUGUGGCUAGACUGCC [A6U C10A A24C G29A], for which the self-cleavage amounted to 0.

For GGCAGUGGUCGACACAGCGUGGCAAAGUGGCUGUGGCUAGACUGAC [A6U C8G A11G C45A], the self-cleavage stood at 0.04.

Regarding GGCAGUGCUCAACACAGCGUGGCCAAGUGGCUGUGGCUAUACUGCC [A6U A24C G40U], the self-cleavage came to 0.14.

With GGCAGUGAUCAACAUAGCGUGGCAAAGUGGCUGUGGCUAGCCUGCC [A6U C8A C15U A41C], the self-cleavage came out at 0.52.

For GGCAGUGACCAACACAGCGUGGCAAAAUGGCUGUGGCUAUACUGCC [A6U C8A U9C G27A G40U], the self-cleavage was 0.25.

For GGCAGUGCUCAACCCAGCGUGGCAAAGUGGCUGCGGCUGGACUGCC [A6U A14C U34C A39G], the self-cleavage was 0.01.

Turning to GGCAGUGUUCAACACAGCGUGGCAAAGUGUCUGUGCAUAGACAGCC [A6U C8U G30U G36C C37A U43A], the self-cleavage came to 0.51.

As to GGCAGUGCUCAACCCAGCGUGGCAAAGUUGCUGUGGAUAGACUGCC [A6U A14C G29U C37A], the self-cleavage came out at 0.16.

As to GGCAGUGCUCAACUCAGCGUGGAAAAGUGAUUGUGGAUAGUCUGAC [A6U A14U C23A G30A C31U C37A A41U C45A], the self-cleavage stood at 0.13.

In the case of GGCAGUGCUCAACACAGCGUGGCAAUGUGGCUGUGGCAGGACUGAC [A6U A26U U38A A39G C45A], the self-cleavage was 1.92.

For the variant GGCAGUGCUCAACACCGCGUGGCAAACCGGCUGUGGCUAGACUGCC [A6U A16C G27C U28C], the self-cleavage was 0.22.

GGCAGUGCUCAACACAGCGUGGCAUAGUGGCGGUGGCUAGACUGGC [A6U A25U U32G C45G]: the self-cleavage amounted to 0.

For GGCAGUGCUCAACUCAGCGUGGCUAAGUGGCUGUGGCUAGACUGCC [A6U A14U A24U], the self-cleavage came out at 0.13.
